By % Inhibition is commonly meant the relative decrease from the control value, in per cent.

Several values for one entry are separate records, joined by “and”; a condition that tells them apart may be missing. Identical values can stand only once. The whole screen tested about 150,000 compounds, of which about 540 (0.36%) showed an effect of 50% or more. Some of the results follow.

The test system of this experiment is Plasmodium falciparum. The experiment is described as follows: Primary screen in NF54 nanoGlo assay, in single point, at 2uM, 72h; a lower Z score goes with more inhibition. The following applies: timepoint 72 hour. The experiment is classed as functional, Erythrocyte.

For `CC1CCN(Cn2c(=S)sc3ccccc32)CC1`, the “% Inhibition” value is reported as -4% and the Z score stood at 0.63.
In the same order, the values of `Cc1ccc2c(O)c(C(=O)N3CCCN(c4ccccc4C#N)CC3)cnc2n1` are -6% and 1.19.
In the same order, the values of `CCOCC1CCN(C(=O)C2CCOC(c3ccccc3)O2)C1` (centres undefined) are -19% and 3.31.
With `CCc1ccc(-c2cn(CCS(=O)(=O)N3CCCC3)nn2)o1`, the “% Inhibition” value is -3% and the Z score amounted to 0.62.
Regarding `Cc1nc(C(=O)NCCc2cccnc2)c(C)n1C1CCN(S(C)(=O)=O)CC1`, the “% Inhibition” value is given as -16% and the Z score is on record as 2.76.
In the same order, the values of `O=C1CCCc2[nH]c(=O)c(C(=O)N3CCC[C@H](C(F)(F)F)C3)cc21` are 0% and 0.02.
As to `CCC(C)CN(CC(=O)N1CCc2sccc2C1COc1ccc(Cl)cc1)C(=O)Cc1ccccc1` (centres undefined), the “% Inhibition” value is -13% and the Z score was 1.78.
Regarding `O=C1CC2(CCN(C(=O)C3CC(=O)N(c4c(F)cccc4F)C3)C2)CN1` (centres undefined), the “% Inhibition” value is on record as -5% and the Z score amounted to 0.81.
As for `C#CCCC1(CCC(=O)N2CC(c3ccccc3)C3CCCC32)N=N1` (centres undefined), the “% Inhibition” value was 4% and the Z score is listed as -0.44.
Taken in the same sequence, the figures for `CC(C)c1noc(N2C[C@H](C(N)=O)[C@@H](C(F)(F)F)C2)n1` were -3% and 0.61.
With `CCOc1ccccc1NC(=O)c1c(NCc2sccc2C)sc2c1CCCCC2`, the “% Inhibition” value was -4% and the Z score amounted to 0.63.
In the same order, the values of `Cc1nn(CC(N)=O)c(C)c1-c1ccc(C(=O)N2CCC(F)(F)CC2)cc1` are -4% and 0.65.
Turning to `Cn1cc([C@@H]2CC(=O)Nc3c2cnn3Cc2ccccc2)cn1`, the “% Inhibition” value was determined as 2% and the Z score is -0.27.
Regarding `O=C(NCC(=O)N1C2COCC1C2)c1cccc(F)c1`, the “% Inhibition” value is -4% and the Z score is 0.54.
Taken in the same sequence, the figures for `CC(C)CCn1nc(C(=O)O)c2c1CCN(C(=O)CCn1ccnc1)C2` were -11% and 1.02.
Taken in the same sequence, the figures for `CCCc1nc(N2CCCN(C(=O)Nc3ccccc3F)CC2)c2c(C)nn(-c3ccccc3)c2n1` were -1% and 0.26.
Taken in the same sequence, the figures for `COC(C)(C1CC1)C(C)Nc1nc(C)ns1` (centres undefined) were -42% and 4.89.
On to `Fc1cccc(-c2nc(-c3ccc4c(c3)OCO4)no2)c1`, for which the “% Inhibition” value is -9% and the Z score was found to be 1.27.
In the same order, the values of `O=S(=O)(Cc1cc(Cl)cc(Cl)c1)N1CC[C@H]2CC[C@@H](C1)N2` are -14% and 2.02.
On to `Cc1nc(N)nc(-c2cccc(C(=O)N3CCC4(CCO4)CC3)c2)c1Cl`, for which the “% Inhibition” value stood at 3% and the Z score is listed as -0.39.
In the same order, the values of `O=C(NC1CCOC1c1ccc(Cl)cc1)c1ccc[nH]1` (centres undefined) are -11% and 1.2.
In the same order, the values of `CCCC[C@H](NCCn1cc(C)cn1)C(N)=O` are -15% and 1.9.
In the same order, the values of `O=c1c2ccccc2cnn1Cc1cc(Cl)c2c(c1)OCCCO2` are 2% and -0.33.
Regarding `COC(=O)[C@H](COC(C)(C)C)NC(=O)OCc1ccccc1`, the “% Inhibition” value was -2% and the Z score amounted to 0.27.
Taken in the same sequence, the figures for `c1ccc(Cn2nnc(C3(c4ccccc4)CCOCC3)n2)cc1` were -7% and 0.89.
For `Fc1ccccc1N1CCN(C2CCN(Cc3ccncc3)CC2)CC1`, the “% Inhibition” value is listed as 20% and the Z score is given as -2.44.
Taken in the same sequence, the figures for `O=C(Cn1c(=O)n(-c2cc(F)cc(F)c2)c(=O)c2sccc21)Nc1ccc(F)cc1F` were -5% and 0.86.
Taken in the same sequence, the figures for `CN(CC(N)=O)C(=O)CCc1cc(Cl)ccc1Br` were -15% and 1.89.
Taken in the same sequence, the figures for `CC(C(=O)N[C@@H](C#N)C(C)C)c1ccccc1` (some centres undefined) were -11% and 1.78.
As for `O[C@@H]1C[C@H](O)C12CCN(c1ncc(Cl)cc1C(F)(F)F)CC2`, the “% Inhibition” value is reported as -7% and the Z score is recorded as 1.16.
With `CC(C)(C)c1csc([C@@H]2CN(c3ccc4nncn4n3)CCO2)n1`, the “% Inhibition” value came to 4% and the Z score is recorded as -0.64.
With `CN(Cc1cc[nH]n1)S(=O)(=O)N(C)C1CCCCC1`, the “% Inhibition” value is -11% and the Z score came to 1.62.
`Cc1cc(-n2c(C)cc(C(=O)Nc3cccc(S(=O)(=O)N4CCCCC4)c3)c2C)no1`: the “% Inhibition” value is recorded as -15% and the Z score is given as 2.07.
Taken in the same sequence, the figures for `CCCNC(=O)CN1CCN(c2cc(C(=O)O)c3cc(NS(=O)(=O)c4cc(C)cc(C)c4)ccc3n2)CC1` were -10% and 1.83.
As to `N#CC1(CCn2nc(CO)ccc2=O)CCCCC1`, the “% Inhibition” value is reported as -9% and the Z score worked out at 1.02.
In the same order, the values of `CC(=O)NC(C)(C)CN(C)Cc1ccccc1` are -9% and 1.2.
Taken in the same sequence, the figures for `CCN1CCN(Cc2nc(C)cc(-c3ccccc3)n2)C(=O)C1=O` were -15% and 1.85.
In the same order, the values of `Cc1cc(C)cc(NC(=O)Cn2nc3c4cc(-c5ccc(F)cc5)nn4ccn3c2=O)c1` are 0% and -0.03.
In the case of `COc1ccc(CCc2nc(-c3ccc(N4CCCCC4)cc3)no2)cc1`, the “% Inhibition” value is recorded as -4% and the Z score was found to be 0.48.
Taken in the same sequence, the figures for `CC1CCN(Cc2nnnn2CC(=O)N2CCc3[nH]nc(C(C)C)c3C2)CC1` were -10% and 1.27.
Taken in the same sequence, the figures for `O=C(Nc1ccc(N2CCOCC2)cc1)c1cccc(S(=O)(=O)N2CCCCC2)c1` were 3% and -0.33.
Taken in the same sequence, the figures for `O=S(=O)(NC1CCCCC1)c1ccc(Cl)c(S(=O)(=O)NC2CCCCC2)c1` were 39% and -5.08.
For the compound `CC(C)NC(=O)CN1CCCCc2c(Cl)cccc21`, the “% Inhibition” value is reported as -4% and the Z score was 0.42.
Taken in the same sequence, the figures for `C[C@@H](Cc1ccccc1F)C(=O)N1CCC(Nc2cccnc2)CC1` were 5% and -0.96.
In the case of `CC(C)C(=O)N[C@H]1CC12CCN(S(=O)(=O)c1ccc(F)cc1F)CC2`, the “% Inhibition” value is listed as -6% and the Z score stood at 0.68.
Taken in the same sequence, the figures for `Cn1ccnc1CCN1C(=O)CN(CCc2ccccc2)C1=O` were -5% and 0.65.
Turning to `Cn1ccnc1[C@H]1CCN(C(=O)N[C@H]2CC[C@H](O)CC2)C1`, the “% Inhibition” value worked out at 5% and the Z score is reported as -0.52.
Taken in the same sequence, the figures for `Cc1cc(C(F)(F)F)ccc1S(=O)(=O)Nc1ncn(Cc2ccncc2)n1` were -7% and 1.14.
As to `COc1cccc(CN2CCC[C@@]3(CCN(C(=O)c4cc(C)n(C)n4)C3)C2)c1OC`, the “% Inhibition” value was -9% and the Z score is 1.17.
In the same order, the values of `Cc1ccc(N2C(=O)c3ccccc3[C@H]2Nc2nc(C)cs2)nc1` are 33% and -4.4.
Taken in the same sequence, the figures for `CC1(COc2cccc3ncoc23)COC1` were -22% and 4.37.
Taken in the same sequence, the figures for `COCCCN1C(=O)CC(CC(=O)N2CCCC(C(=O)CC(C)C)C2)(c2ccccc2OC)C1=O` (centres undefined) were -9% and 1.13.
For the compound `CC(=O)N1CC[C@H](NC(=O)Nc2nc3c(s2)CCCC3)C1`, the “% Inhibition” value is -4% and the Z score was determined as 0.47.
In the same order, the values of `COc1ccc(NC(=O)Cn2cncc(C(=O)NC3CC3)c2=O)cc1` are -7% and 1.22.
In the same order, the values of `O=C(Cc1ccc(OC(F)F)cc1)NCc1ccc(C(=O)N2CCOCC2)cc1` are -14% and 1.9.
In the same order, the values of `OCc1ccncc1NCc1csc(C(F)(F)F)n1` are -17% and 3.14.
For the compound `CN1c2ccccc2C(=O)N[C@@H]1c1ccc2ccccc2c1`, the “% Inhibition” value is 20% and the Z score is -2.31.
As for `CCc1nnc(-c2cc(S(=O)(=O)NCc3ccc4c(c3)OCO4)c[nH]2)o1`, the “% Inhibition” value is recorded as -7% and the Z score was determined as 1.43.
In the same order, the values of `Cn1ccc(NS(=O)(=O)c2cccc3c2N=S=N3)n1` are -1% and 0.06.
Taken in the same sequence, the figures for `CC1(C)Cc2cccc(OCc3ccc(C(=O)N4CCN(c5ccccc5Cl)CC4)cc3)c2O1` were 0% and 0.04.
Turning to `C[C@H]1CCc2sc(C(=O)N3CCc4n[nH]cc4C3)cc2C1`, the “% Inhibition” value was -14% and the Z score came to 2.79.
In the same order, the values of `CO[C@@]1(C)C[C@@H](O)C12CCN(C(=O)CN(C)c1ccccc1)CC2` are -31% and 2.71.
Taken in the same sequence, the figures for `Cc1cnc(NC(=O)c2nc(C)oc2-c2ccccc2)[nH]1` were -10% and 1.11.
Taken in the same sequence, the figures for `O=C(Nc1ccc(OCc2ccccc2)cc1)NC1CCCCC1` were -10% and 1.19.
On to `CN(C)C(=O)N(C)[C@H]1CCN(C(=O)c2cc(C#N)ccn2)C1`, for which the “% Inhibition” value is recorded as -8% and the Z score is 0.9.
As for `COC1(C)CC(NC(=O)Nc2nccs2)C1(C)C` (centres undefined), the “% Inhibition” value was -4% and the Z score was 0.37.
Taken in the same sequence, the figures for `COCC1(C(=O)NCc2cscn2)CCC1` were -6% and 1.02.
Taken in the same sequence, the figures for `CCOC(=O)n1c2ccccc2c2ccccc21` were -3% and 0.31.
In the case of `CCN1CCc2c(c(CN(CC(C)C)C(=O)NC(C)(C)C)nn2-c2ccccc2OC)C1`, the “% Inhibition” value is on record as -8% and the Z score is reported as 1.07.
Taken in the same sequence, the figures for `O=C1CCOc2cc(-c3cc[nH]n3)ccc21` were 3% and -0.47.
In the same order, the values of `N#C[C@@H]1COCCN1C(=O)c1ccc2c(c1)CCCC2` are 4% and -0.74.
Turning to `O[C@@H]1CCN(c2ncc(Cl)cc2F)C1`, the “% Inhibition” value is listed as -7% and the Z score turned out to be 1.
In the same order, the values of `CCn1c(C)cc(CN(C)c2ccnc(N(C)C)n2)c1C` are -7% and 0.93.
Taken in the same sequence, the figures for `CC(C)(C)c1ccc(C(=O)N/C(=N/c2ccccc2)NCc2cccnc2)cc1` were -7% and 0.61.
For `COCc1nc(O)cc(N2CC[C@H](c3cnn(C)c3)C2)n1`, the “% Inhibition” value is -6% and the Z score came to 1.16.
Taken in the same sequence, the figures for `Cn1ncc2cc(-c3ccc(C(=O)NCC(=O)N4CCCC4)cc3)ccc21` were -2% and 0.32.
In the same order, the values of `COc1cccc(CNS(=O)(=O)c2cc(-c3nc(C(C)C)cs3)sc2C)c1` are -12% and 1.52.
With `O=C1C[C@H](N2CCN(Cc3ccccc3)CC2)C(=O)N1c1ccc2c(c1)OCCO2`, under “2 µM”, the “% Inhibition” value was -16% and 2%.
With `Cc1cc(C(=O)N[C@H]2CC[C@H]2NC2CCCCCC2)nc2[nH][nH]c(=O)c12`, the “% Inhibition” value is reported as -18% and the Z score is listed as 2.93.
In the same order, the values of `Cc1cc(NCc2c(C)noc2C)nc(C2CC2)n1` are -7% and 1.22.
Take `CN(C)CCN1CC2(CCC1=O)CCN(c1cc(C3CC3)ncn1)CC2`: the “% Inhibition” value is given as -11% and the Z score was 1.46.
In the case of `Cc1noc(C)c1CC(=O)N1CCOC[C@@H](CO)C1`, the “% Inhibition” value was -22% and the Z score amounted to 2.
For the compound `Cc1noc(C)c1N(C)C(=O)c1csc(Cc2cccc(F)c2)n1`, the “% Inhibition” value is listed as 6% and the Z score was -0.76.
Taken in the same sequence, the figures for `O=C(NCCN1CCCC1)[C@@H]1CCCCc2nnc(-c3ccccc3)n21` were -11% and 1.69.
In the same order, the values of `O=C(OC1CCCC1)c1ccc(NCc2nnc(C3CC3)o2)cc1` are -17% and 2.3.

The values above are taken from ChEMBL document CHEMBL4888484, “Replenishing the malaria drug discovery pipeline: Screening and hit evaluation of the MMV Hit Generation Library 1 (HGL1) against asexual blood stage Plasmodium falciparum ,using a nano luciferase reporter read-out” (2022).
